Assay results from the RNAGym collection of RNA variant scans (doi:10.7554/elife.90254).
The source gives no read counts; variants with many changes may rest on few reads.

B1: LINE1-mini (parent)
chain: GGCAGAGCUCAACACAGCGUGGCAAAGUGGCUGUGGCUAGACUGCC

Variants of: B1
Experiment: self-cleavage, relative activity (ratio to wild type); higher = more cleavage; in vitro, sequencing; the parent is a self-cleaving ribozyme
C15U G27C G36U showed a self-cleavage of 0.07.
Work on C15U G21U A25U yielded a self-cleavage of 0.26.
For C15U G29A G36C C42U, the self-cleavage was 0.06.
In the case of A16C G17A G19U G27C G36C, the self-cleavage is reported as 0.01.
C15U C23G U43A gave a self-cleavage of 0.32.
Work on C15U C31U G40U yielded a self-cleavage of 0.07.
With A16C G30A A39C G40U the self-cleavage was 0.04.
Variant A16C G19C G40C C42U has a self-cleavage of 0.05.
Work on A16C A26U G29C C46U yielded a self-cleavage of 0.63.
With A16C G27C G40C the self-cleavage was 0.03.
A16C G22U U28A gave a self-cleavage of 0.1.
A16C C18G U38A gave a self-cleavage of 0.02.
With C15U A24C C31A the self-cleavage was 0.04.
Work on C15U A26U C31U G44A yielded a self-cleavage of 0.08.
With A16C C18G G22U the self-cleavage was 0.01.
C15G G27A U34C showed a self-cleavage of 0.02.
Variant A16C A24U A41C has a self-cleavage of 0.09.
Variant C15U G19A A25G U28G has a self-cleavage of 0.21.
A16C G21U G36A gave a self-cleavage of 0.39.
For C15U A24U G30A, the self-cleavage was 0.11.
Variant C15U U20G U32C has a self-cleavage of 0.06.
C15G G27U G36C gave a self-cleavage of 0.16.
With C15U G17U A41U the self-cleavage was 0.2.
C15U G17U G40A gave a self-cleavage of 0.04.
C15U G29U C46A showed a self-cleavage of 1.79.
For C15U C23A G29C, the self-cleavage was 1.67.
C15U G19A G29U U38A gave a self-cleavage of 1.51.
Work on C15U U20C G22C yielded a self-cleavage of 0.99.
Work on C15U U32A G40A C42A yielded a self-cleavage of 0.06.
Work on A16C A25C G30A U38A yielded a self-cleavage of 0.04.
For C15G G27U A39G, the self-cleavage was 0.06.
Work on C15U G17U U38C yielded a self-cleavage of 0.06.
Work on C15U G21U G44U C46A yielded a self-cleavage of 0.05.
Variant C15G U20A G30C G44C has a self-cleavage of 0.01.
For C15U G19U G21C U34G, the self-cleavage was 0.02.
Variant C15U G17U G21C U28A has a self-cleavage of 0.43.
C15U G35U C46A showed a self-cleavage of 0.04.
Variant C15U G21U G27A has a self-cleavage of 0.75.
With C15U G21A G29C the self-cleavage was 2.53.
With C15U A25C A41G the self-cleavage was 0.04.
Work on C15U A25C A26U C45U yielded a self-cleavage of 0.23.
Variant A16C G17C U32A G36A has a self-cleavage of 0.04.
C15G U32G C42U G44A gave a self-cleavage of 0.01.
In the case of C15U G19A G33A U43A, the self-cleavage is reported as 0.02.
C15U C18G G40U gave a self-cleavage of 0.02.
In the case of C15U G19A A24C, the self-cleavage is reported as 0.21.
Variant A16C A25G G36C has a self-cleavage of 0.03.
A16C C18G A26U C42A G44A showed a self-cleavage of 0.01.
A16C A25U G27C gave a self-cleavage of 0.06.
With A16C G29U U32G the self-cleavage was 0.26.
For C15U G22U C23A U43A, the self-cleavage was 0.01.
Work on C15U G22U C46U yielded a self-cleavage of 0.51.
A16C C42A G44C gave a self-cleavage of 0.03.
Work on A16C G27A A39U yielded a self-cleavage of 0.05.
C15G G36C C37U showed a self-cleavage of 0.07.
Variant A16C G19C U20G G40U has a self-cleavage of 0.04.
Work on C15U U28G G36U C45U yielded a self-cleavage of 0.12.
A16C A26U G30U C46U gave a self-cleavage of 0.09.
A16C C18G A24C U43C gave a self-cleavage of 0.01.
In the case of C15U G29C G44A, the self-cleavage is reported as 0.31.
In the case of C15U G29C G44C, the self-cleavage is reported as 0.93.
C15U G35C C46A gave a self-cleavage of 0.03.
Work on C15U A16C G35U A39C yielded a self-cleavage of 0.02.
C15U A26G G27U C37A C45A showed a self-cleavage of 0.03.
In the case of A16C G21C U38A C42A U43G, the self-cleavage is reported as 0.06.
Variant A16C G17U G33U has a self-cleavage of 0.05.
For C15U A25C U34A G36C C37A, the self-cleavage was 0.05.
C15U A16C A24U gave a self-cleavage of 0.13.
Variant A16C C45U C46G has a self-cleavage of 0.03.
C15U G17C G33C G40U showed a self-cleavage of 0.05.
C15U C42G C46G gave a self-cleavage of 0.
Work on C15U G40A U43C yielded a self-cleavage of 0.11.
For C15U G40A U43A, the self-cleavage was 0.04.
Work on C15U A26U G27C U34A G35A G40U yielded a self-cleavage of 0.43.
Work on C15G G40C C42A yielded a self-cleavage of 0.04.
For C15U G22U A24G G30U, the self-cleavage was 0.35.
Variant C15U G22A A25U C45G has a self-cleavage of 0.45.
C15U G19U G35A gave a self-cleavage of 0.13.
Work on A16C G17A C18G yielded a self-cleavage of 0.05.
C15U G19C U34G gave a self-cleavage of 0.08.
C15U G29U C45U showed a self-cleavage of 1.86.
For C15U G27U G44C, the self-cleavage was 0.18.
In the case of C15G G35U U38A G40C C42A, the self-cleavage is reported as 0.01.
A16C C18A C42U showed a self-cleavage of 0.04.
C15U C31A G40U C42G showed a self-cleavage of 0.07.
C15U A16C G22C A24U gave a self-cleavage of 0.05.
C15U G21U G36C gave a self-cleavage of 0.03.
A16C A24G G27A showed a self-cleavage of 0.81.
Work on A16C G19A U20G G35U C46A yielded a self-cleavage of 0.05.
C15U C23A A25U showed a self-cleavage of 0.79.
Variant C15U C31A C42U has a self-cleavage of 0.05.
Work on C15U G17C A26C yielded a self-cleavage of 0.22.
Variant C15U G17C A26G has a self-cleavage of 0.04.
Work on C15U G21C G27A C37U C46A yielded a self-cleavage of 0.07.
C15U G29U C37A C42U gave a self-cleavage of 0.05.
For C15U U20C G27U G44U, the self-cleavage was 0.18.
Variant C15U G19C C23U U34G A41U has a self-cleavage of 0.02.
With C15U U34A C45U the self-cleavage was 0.11.
C15U G19U A24C C37U G40U C42U gave a self-cleavage of 0.02.
With A16C G30C G40C G44A C46G the self-cleavage was 0.02.
Variant A16C G21C A39G has a self-cleavage of 0.01.
In the case of C15U G40U C42U, the self-cleavage is reported as 0.03.
For C15U G21A G36C, the self-cleavage was 0.03.
Variant C15G U20G G22A G35A C37A has a self-cleavage of 0.03.
In the case of C15U G17U C37A, the self-cleavage is reported as 0.01.
In the case of C15U A24C G30U, the self-cleavage is reported as 0.07.
Work on A16C C23G U32C yielded a self-cleavage of 0.04.
C15G G22C G27U U34A U43C showed a self-cleavage of 0.
C15U C18G G40C C42U gave a self-cleavage of 0.
For C15U G19U G40U C45A, the self-cleavage was 0.01.
C15U A16U G33A gave a self-cleavage of 0.02.
Variant A16C A26G G27C C37G U38C has a self-cleavage of 0.08.
With C15U U38G C42A the self-cleavage was 0.11.
C15G G33U C46A showed a self-cleavage of 0.12.
With C15U A26C G27U U38G the self-cleavage was 0.03.
For C15U G22A U32C C42U, the self-cleavage was 0.03.
A16C G21U G27U U32C U34A showed a self-cleavage of 0.01.
In the case of C15U C18G G22C A24U, the self-cleavage is reported as 0.07.
In the case of C15U G17A G27A U32G U38C, the self-cleavage is reported as 0.05.
For C15G G22C A25U, the self-cleavage was 0.01.
C15U A16G G35A A41C showed a self-cleavage of 0.05.
Variant A16C G35A G40U has a self-cleavage of 0.04.
C15U A24U C31A gave a self-cleavage of 0.02.
Work on A16C G30U C45U yielded a self-cleavage of 0.03.
C15U U34G C46A gave a self-cleavage of 0.03.
C15G U28C G29C showed a self-cleavage of 0.06.
Work on C15U G29U U43A yielded a self-cleavage of 0.05.
With C15U G17A C42A G44U the self-cleavage was 0.01.
Variant C15G U28G C37A has a self-cleavage of 0.03.
With C15U A26U G44U the self-cleavage was 0.18.
Work on A16C G22A A25C G33C A41C U43A yielded a self-cleavage of 0.01.
For A16C C23G U28G, the self-cleavage was 0.06.
C15G G33U G35U C46A gave a self-cleavage of 0.01.
C15U A16C G19A G21A G35A gave a self-cleavage of 0.3.
For C15U C31G C45G, the self-cleavage was 0.02.
Work on C15U G22U U34C G44A yielded a self-cleavage of 0.04.
For C15U A16U C18A C23U, the self-cleavage was 0.01.
Work on C15U U34C C46A yielded a self-cleavage of 0.
In the case of A16C G33C C42A, the self-cleavage is reported as 0.03.
With C15U U28C C31A U32C C37A the self-cleavage was 0.01.
A16C G21C U32A C37G gave a self-cleavage of 0.02.
In the case of C15U G27C G30C G44A, the self-cleavage is reported as 0.02.
Variant C15U G21A A25U C37U has a self-cleavage of 0.12.
With C15U A26U A41G U43C the self-cleavage was 0.09.
C15U G21U A24C gave a self-cleavage of 1.12.
C15U G17U A26C C45G gave a self-cleavage of 0.04.
C15U G17C U20C A25U U43G showed a self-cleavage of 0.
With C15G G36U U38C the self-cleavage was 0.01.
With C15U A16U G19A G36A the self-cleavage was 0.19.
For C15U A16G G22C U38A, the self-cleavage was 0.02.
A16C A25G U28G gave a self-cleavage of 0.04.
Variant C15U C18G U28C G33A C45A has a self-cleavage of 0.01.
Work on C15U A25U U32G G44C yielded a self-cleavage of 0.
A16C A24C G27C G30U G36U C37G showed a self-cleavage of 0.01.
Work on C15U A26C G27A C31U U32G U43C C45A yielded a self-cleavage of 0.05.
In the case of A16C G17A U28G G30C U38G, the self-cleavage is reported as 0.01.
In the case of C15U C18G C45U, the self-cleavage is reported as 0.08.
With C15G G29C G35C U43A C45A the self-cleavage was 0.
In the case of C15U G27C U43G, the self-cleavage is reported as 0.07.
In the case of A16C G17A U20A G40A, the self-cleavage is reported as 0.01.
A16C G22A G27C U28A G33U A41G showed a self-cleavage of 0.01.
For C15U C37A U38C, the self-cleavage was 0.03.
For C15U A16G G33C, the self-cleavage was 0.02.
C15U G27U G35C A39U C45A gave a self-cleavage of 0.02.
C15U G22C G29U showed a self-cleavage of 2.66.
Work on C15U G17C A24C C46A yielded a self-cleavage of 0.03.
With A16C G19A A25G C31G G35A U38G C45A the self-cleavage was 0.
